According to ChEMBL document CHEMBL5724801, “EUbOPEN Chemogenomics Library - Multiplex” (2024):
A number of entries come with more than one value. They are shown here; other results are not. An entry can have further records. Results that share an entry are repeated measurements (runs, samples, wells, individuals or studies).

Experiments:
Assay type in all cases: toxicity, cell-based
Fibroblast = experiment: Multiplex assay against human fibroblast
Procedure, shortened: (§1)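 Phenotypes for tubulin, mitochondrial mass and membrane permeability are expressed as per cents of healthy-nucleus cells. Cells were stained live at seeding with Hoechst33342, BioTracker Green Microtubule Cytoskeleton Dye, MitoTracker Red and Annexin V Alexa Fluor 680, then imaged after compound addition on a CQ1 microscope at 37°C and 5% CO2. Machine-learning gating in CellPathfinder separated Hoechst high-intensity objects from normal cells, divided normal cells by nuclear state (healthy, pyknosed, fragmented) and divided pyknosed cells into mitotic or apoptotic.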

U2OS = experiment: Multiplex assay against U2OS; conditions: human; procedure, shortened: as §1
HEK-293T = experiment: Multiplex assay against HEK293T; conditions: human; procedure, shortened: as §1
[1] = 48 h, 1 µM, compound concentration 1 uM
[2] = 48 h, 10 µM, compound concentration 10 uM
[3] = 12 h, 1 µM, compound concentration 1 uM
[4] = 12 h, 10 µM, compound concentration 10 uM
[5] = 24 h, 1 µM, compound concentration 1 uM
[6] = 24 h, 10 µM, compound concentration 10 uM

SMILES | Population Mitochondria Different-Phenotype (%) (Fibroblast; [1]) | Population Mitochondria Different-Phenotype (%) (U2OS; [2]) | Population Healthy Nuclei (%) (HEK-293T; [3]) | Population Tubulin-Different-Phenotype (%) (HEK-293T; [3]) | Population Tubulin-Different-Phenotype (%) (HEK-293T; [1]) | Population Healthy Nuclei (%) (HEK-293T; [2]) | Population Tubulin-Different-Phenotype (%) (HEK-293T; [2]) | Population Apoptotic (%) (Fibroblast; [6]) | Population Apoptotic (%) (Fibroblast; [1]) | Population Mitochondria Different-Phenotype (%) (U2OS; [4]) | Population Mitochondria Different-Phenotype (%) (U2OS; [6]) | Total Cell Count (HEK-293T; [5]) | Population Apoptotic (%) (HEK-293T; [1]) | Population Pyknosed Nuclei (%) (HEK-293T; [1]) | Total Cell Count (HEK-293T; [1]) | Total Cell Count (U2OS; [1]) | Population Healthy Nuclei (%) (HEK-293T; [4]) | Population Tubulin-Different-Phenotype (%) (HEK-293T; [4]) | Population Healthy Nuclei (%) (HEK-293T; [6]) | Total Cell Count (HEK-293T; [2]) | other results
O=C1NCc2ccc3c(-c4cccc(Cl)c4)c[nH]c3c21 | 13.49% and 3.09% | 0.79% and 11.86% | 43.88% and 14.48% | 6.56% and 38.1% | 2.1% and 20.25% | 40.09% and 10.24% | 4.49% and 15.38% | – | – | – | – | – | – | – | – | – | – | – | – | – | Population Mitochondria Different-Phenotype (%) (U2OS; [1]): 1.09% and 17.95%; Population Mitochondria Different-Phenotype (%) (HEK-293T; [4]): 46.55% and 0%; Population Mitochondria Different-Phenotype (%) (HEK-293T; [5]): 27.22% and 6.67%; Population Mitochondria Different-Phenotype (%) (HEK-293T; [1]): 65.38% and 18.99%
COc1ccc2nc3ccc(OC)cc3c(SCCCN)c2c1.Cl | 13.69% and 3.11% | 0.37% and 33.33% | 52.37% and 9.62% | – | 2.76% and 46.74% | 19.23% and 3.1% | 3.46% and 60% | 12.5% and 50% | 28.57% and 0% | 3.3% and 64.96% | 1.66% and 43.52% | 550 and 164 | 4.83% and 25% | 11.42% and 42.7% | 1271 and 179 | – | – | – | – | – | Population Membrane Permeable-Phenotype (%) (U2OS; [4]): 8.06% and 34.19%; Population Mitotic Cells (%) (U2OS; [4]): 50% and 0%; Population Healthy Nuclei (%) (U2OS; [6]): 24.34% and 7.22%; Population Membrane Permeable-Phenotype (%) (U2OS; [6]): 1.32% and 14.81%; Population Healthy Nuclei (%) (U2OS; [2]): 28.2% and 5.08%; Population Membrane Permeable-Phenotype (%) (U2OS; [2]): 3.3% and 13.58%; Population Mitochondria Different-Phenotype (%) (HEK-293T; [3]): 35.64% and 0%
COc1cc2ncnc(Nc3ccc(Oc4ccccc4)cc3C)c2cc1OC.Cl | – | 1.17% and 23.3% | – | – | 2.03% and 28.89% | – | 3.87% and 17.39% | 4.35% and 24% | – | 1.01% and 41.07% | 0.86% and 43.22% | 644 and 161 | 7.78% and 26.32% | – | 1387 and 196 | 1278 and 342 | 46.03% and 10.27% | 11.31% and 46.67% | 67.56% and 12.34% | 770 and 197 | Total Cell Count (U2OS; [3]): 481 and 159; Total Cell Count (U2OS; [5]): 672 and 210; Total Cell Count (U2OS; [2]): 759 and 231; Population Pyknosed Nuclei (%) (HEK-293T; [5]): 19.1% and 59.01%; Population Tubulin-Different-Phenotype (%) (HEK-293T; [6]): 23.51% and 5.26%
CC/C(=C(\c1ccc(O)cc1)c1ccc(OCCN(C)C)cc1)c1ccccc1 [AFIMOXIFENE] | – | 1.49% and 26% | – | 4.83% and 25.81% | 1.4% and 53.9% | – | 9.51% and 53.12% | – | 5% and 26.67% | 3.9% and 55.65% | 1.32% and 46.49% | 641 and 186 | – | – | 1253 and 251 | 873 and 282 | 44.11% and 6.77% | – | 58.29% and 17.05% | 491 and 129 | Population Apoptotic (%) (Fibroblast; [4]): 5.88% and 19.05%; Population Apoptotic (%) (U2OS; [3]): 48.39% and 12.5%; Population Membrane Permeable-Phenotype (%) (HEK-293T; [4]): 0.76% and 11.11%
C=C(C)[C@H]1CN[C@H](C(=O)O)[C@H]1CC(=O)O [KAINIC ACID] | – | – | – | 5.02% and 17.14% | 1.04% and 22.53% | – | 0.96% and 23.5% | – | – | – | – | 491 and 161 | – | 8.02% and 25.88% | 1348 and 255 | 1248 and 368 | 64.75% and 21.02% | 1.61% and 42.42% | – | 1260 and 268 | Population Apoptotic (%) (Fibroblast; [3]): 6.06% and 27.27%; Population Tubulin-Different-Phenotype (%) (Fibroblast; [5]): 5.43% and 17.07%; Population Tubulin-Different-Phenotype (%) (Fibroblast; [1]): 1.79% and 15.18%; Population Mitochondria Different-Phenotype (%) (Fibroblast; [2]): 10.84% and 0.44%; Population Tubulin-Different-Phenotype (%) (Fibroblast; [2]): 2.46% and 17.33%; Population Pyknosed Nuclei (%) (HEK-293T; [4]): 22.98% and 76.43%; Population Pyknosed Nuclei (%) (HEK-293T; [6]): 12.86% and 59.16%; Total Cell Count (HEK-293T; [6]): 583 and 191; Population Pyknosed Nuclei (%) (HEK-293T; [2]): 9.84% and 30.08%
c1ccc2nc(N3CCNCC3)ccc2c1 [QUIPAZINE] | 12.09% and 1.54% | – | – | 2.07% and 25.93% | 1.59% and 35.38% | – | 1.88% and 49.45% | – | – | – | – | 610 and 172 | 4.19% and 18.84% | – | 1358 and 200 | 1135 and 353 | 52.04% and 16.54% | 7.19% and 28.57% | – | 1100 and 141 | Population Apoptotic (%) (Fibroblast; [4]): 5.26% and 25.71%; Population Mitochondria Different-Phenotype (%) (Fibroblast; [4]): 2.78% and 13.73%; Population Tubulin-Different-Phenotype (%) (Fibroblast; [2]): 8.81% and 27.14%; Population Mitochondria Different-Phenotype (%) (U2OS; [3]): 0.55% and 10.69%; Total Cell Count (HEK-293T; [6]): 492 and 131; Population Pyknosed Nuclei (%) (HEK-293T; [2]): 10% and 34.04%
